Test results published in the antibiotic and cytotoxicity screens of Wong et al. (2023).
This is one part of the list.

Tests used:
HSkMC = human skeletal muscle cells; assay: cytotoxicity call (relative viability < 0.9); conditions: 10 µM
HepG2 = assay: cytotoxicity call (relative viability < 0.9); conditions: 10 µM
S. aureus RN4220 = assay: growth inhibition call (relative growth <= 0.2); conditions: 50 µM

Structure (SMILES) | cytotoxicity call (HSkMC) | cytotoxicity call (HepG2) | growth inhibition call (S. aureus RN4220)
c1ccc(-n2cncn2)c(Cn2cnnc2)c1 | inactive | inactive | inactive
O=C(C[C@H]1CC[C@H]2[C@@H](COC[C@@H](O)CN2S(=O)(=O)c2ccccc2)O1)NCCN1CCCCC1 | inactive | inactive | inactive
COc1ccc(NC(=O)Nc2ccc3c(c2)C(=O)N([C@@H](C)CO)C[C@H](C)[C@H](CN(C)Cc2ccc4c(c2)OCO4)OCCCC[C@H](C)O3)cc1 | active | inactive | inactive
C[C@@H]1CN([C@@H](C)CO)C(=O)c2cccc(NC(=O)Nc3cccc4ccccc34)c2O[C@H]1CN(C)S(=O)(=O)c1ccc2c(c1)OCCCO2 | inactive | inactive | inactive
CC1(C)C[C@H](n2[nH]c(=O)cc2N)CCO1 | inactive | inactive | inactive
C[C@H]1CN([C@@H](C)CO)C(=O)c2cc(C#CCN(C)C)cnc2O[C@H]1CN(C)S(C)(=O)=O | inactive | inactive | inactive
C[C@@H]1CCCCO[C@@H](CN(C)C(=O)Nc2ccc3c(c2)OCO3)[C@H](C)CN([C@@H](C)CO)C(=O)c2cc(NC(=O)C3CCCCC3)ccc2O1 | inactive | inactive | inactive
CNCCCC12CCC(c3ccccc31)c1ccccc12.Cl | inactive | active | inactive
O=C(Nc1nn[nH]n1)C1CCCCC1 | inactive | inactive | inactive
Cc1ccc(S(=O)(=O)Nc2cccc3c2O[C@H](CN(C)C(=O)Nc2cccc4ccccc24)[C@@H](C)CN([C@@H](C)CO)C3=O)cc1 | active | active | inactive
COCC(=O)N1C[C@@H](C)[C@H](OC)CN(C)C(=O)c2cc(NC(=O)c3ccc(F)cc3)ccc2OC[C@H]1C | inactive | inactive | inactive
COC(=O)Cn1nc(N)c2ccccc21 | inactive | inactive | inactive
C[C@@H]1CN([C@H](C)CO)C(=O)Cc2cc(NS(C)(=O)=O)ccc2O[C@H]1CN(C)S(C)(=O)=O | inactive | inactive | inactive
COc1ccc(/C=C/CN2CCC(C(=O)N[C@@H](c3ccc(-c4ccccc4)cc3)c3cnccn3)CC2)cc1 | inactive | active | active
C[C@@H]1CN([C@@H](C)CO)C(=O)c2cccc(NC(=O)c3cnccn3)c2O[C@@H]1CN(C)S(=O)(=O)c1ccc(F)cc1 | inactive | inactive | inactive
O=C(Cc1ccccn1)NCC[C@H]1CC[C@H](NC(=O)CN2CCOCC2)[C@@H](CO)O1 | inactive | inactive | inactive
Cc1cc(C(=O)Nc2cccc3c2O[C@H](CN(C)C(=O)NC2CCCCC2)[C@H](C)CN([C@@H](C)CO)C3=O)n(C)n1 | inactive | inactive | inactive
COc1ccc(S(=O)(=O)Nc2ccc3c(c2)C(=O)N([C@H](C)CO)C[C@H](C)[C@@H](CN(C)C(=O)Nc2c(C)noc2C)OCCCC[C@H](C)O3)cc1 | inactive | inactive | inactive
C[C@H]1CN([C@@H](C)CO)C(=O)Cc2cc(NS(C)(=O)=O)ccc2O[C@@H]1CN(C)S(=O)(=O)c1ccccc1 | inactive | inactive | inactive
C[C@@H]1CCCCO[C@@H](CN(C)C(=O)Cc2ccccc2)[C@@H](C)CN([C@@H](C)CO)C(=O)c2cc(NC(=O)NC3CCCCC3)ccc2O1 | inactive | inactive | inactive
C[C@@H]1CN([C@H](C)CO)C(=O)Cc2cc(NS(=O)(=O)c3cn(C)cn3)ccc2O[C@H]1CN(C)C(=O)Nc1ccccc1 | inactive | inactive | inactive
C[C@H]1CN([C@@H](C)CO)C(=O)c2cccc(NS(=O)(=O)c3ccc(F)cc3)c2O[C@@H]1CN(C)Cc1ccc(Cl)c(Cl)c1 | inactive | inactive | inactive
C[C@@H]1CN([C@@H](C)CO)C(=O)c2cccc(NS(=O)(=O)c3ccccc3)c2O[C@@H]1CN(C)Cc1ccc(-c2ccccc2)cc1 | inactive | inactive | inactive
C[C@@H]1CCCCO[C@H](CN(C)C(=O)Nc2ccccc2)[C@@H](C)CN([C@H](C)CO)C(=O)c2cc(NC(=O)Nc3ccc(C(F)(F)F)cc3)ccc2O1 | inactive | inactive | inactive
CC(C)NC(=O)N[C@H]1C=C[C@@H](CC(=O)NCCN2CCCC2)O[C@H]1CO | inactive | inactive | inactive
C[C@H](CO)N1C[C@H](C)[C@H](CN(C)C(=O)Nc2ccc(F)cc2)Oc2ccc(NS(=O)(=O)c3cn(C)cn3)cc2C1=O | inactive | inactive | inactive
CN(CC(=O)Nc1ccccc1)S(C)(=O)=O | inactive | inactive | inactive

Structure (SMILES) | cytotoxicity call (HSkMC) | cytotoxicity call (HepG2) | growth inhibition call (S. aureus RN4220)
COc1ccc(S(=O)(=O)Nc2ccc3c(c2)[C@@H]2C[C@H](CC(=O)NCC4CC4)O[C@H](CO)[C@@H]2O3)cc1 | inactive | inactive | inactive
C[C@H]1CN([C@@H](C)CO)S(=O)(=O)c2ccc(C#CCC3CCCC3)cc2O[C@@H]1CN(C)C(=O)CN(C)C | inactive | inactive | inactive
C[C@H](CO)N1C[C@H](C)[C@H](CN(C)Cc2ccc(C(=O)Nc3ccccc3N)cc2)Oc2ccc(NC(=O)Nc3ccccc3)cc2CC1=O | inactive | inactive | inactive
C[C@@H]1CCCCO[C@@H](CN(C)Cc2ccncc2)[C@H](C)CN([C@@H](C)CO)C(=O)c2cc(NS(C)(=O)=O)ccc2O1 | inactive | inactive | inactive
COc1ccc(S(=O)(=O)N(C)C[C@@H]2OCCCC[C@H](C)Oc3ccc(NC(=O)NC4CCCCC4)cc3C(=O)N([C@@H](C)CO)C[C@@H]2C)cc1 | inactive | inactive | inactive
C[C@H](CO)N1C[C@H](C)[C@@H](CN(C)Cc2ccc(-c3ccccc3)cc2)Oc2ccc(NC(=O)c3ccncc3)cc2CC1=O | inactive | inactive | inactive
O=C(C[C@H]1CC[C@H]2[C@@H](COC[C@H](O)CN2S(=O)(=O)c2cccc(F)c2)O1)NCCCN1CCOCC1 | inactive | inactive | inactive
C[C@@H]1CN([C@@H](C)CO)C(=O)c2cccc(NC(=O)NC3CCCCC3)c2O[C@H]1CN(C)Cc1ccc(Cl)c(Cl)c1 | inactive | inactive | inactive
C[C@H]1CN([C@@H](C)CO)C(=O)c2cc(C3=CCCCC3)cnc2O[C@H]1CN(C)S(=O)(=O)c1cn(C)cn1 | inactive | inactive | inactive
C[C@@H]1CCCCO[C@H](CN(C)Cc2ccc(C(F)(F)F)cc2)[C@H](C)CN([C@H](C)CO)C(=O)c2cc(NC(=O)c3ccncc3)ccc2O1 | inactive | inactive | inactive
CCNC1=N[C@@H]2[C@@H](O)[C@H](O)[C@@H](CO)O[C@@H]2S1 | inactive | inactive | inactive
COc1ccc([C@@H]2CC(=O)c3c(O)cc(O[C@@H]4O[C@H](CO[C@@H]5O[C@@H](C)[C@H](O)[C@@H](O)[C@H]5O)[C@@H](O)[C@H](O)[C@H]4O)cc3O2)cc1O | inactive | inactive | inactive
COCCOC(=O)N1C(=O)[C@@]2(c3cc(C#CC4=CCCCC4)ccc31)[C@H](C(=O)N1CCCCCCC1)[C@H]1C(=O)O[C@H](c3ccccc3)[C@H](c3ccccc3)N1[C@@H]2c1ccc(OCCO)cc1 | inactive | inactive | inactive
C[C@@H]1CN([C@@H](C)CO)C(=O)Cc2cc(NS(=O)(=O)c3cn(C)cn3)ccc2O[C@@H]1CN(C)C(=O)Nc1ccccc1 | inactive | inactive | inactive
C[C@@H]1CN([C@@H](C)CO)C(=O)Cc2cc(NC(=O)CCCCCC(=O)Nc3ccccc3N)ccc2O[C@@H]1CN(C)Cc1ccc(Oc2ccccc2)cc1 | inactive | active | inactive
C[C@@H]1CN([C@H](C)CO)C(=O)Cc2cc(NC(=O)C3CCCCC3)ccc2O[C@@H]1CN(C)C(=O)Nc1cccc2ccccc12 | inactive | inactive | inactive
C[C@@H]1CN([C@@H](C)CO)C(=O)CCCn2cc(nn2)CO[C@H]1CN(C)Cc1ccc2c(c1)OCCN2C | inactive | inactive | inactive
O=C(NCC(F)(F)F)c1cc2c(c(-c3cccc(-c4ccccc4F)c3)n1)[C@@H](CCO)N(C(=O)CC1CC1)C2 | active | inactive | inactive
C[C@@H]1CCCCO[C@@H](CN(C)Cc2ccc(Cl)c(Cl)c2)[C@H](C)CN([C@@H](C)CO)C(=O)c2cc(NC(=O)C3CCCCC3)ccc2O1 | inactive | inactive | inactive
CCCC(=O)N1CC[C@]2(CC1)CN([C@@H](CO)c1c2c2ccc(cc2n1C)OC)C(=O)CN1CCOCC1 | inactive | inactive | inactive
C[C@@H]1CCCCO[C@@H](CN(C)Cc2ccc(C(=O)O)cc2)[C@H](C)CN([C@@H](C)CO)C(=O)c2cc(NS(=O)(=O)c3ccc(Cl)cc3)ccc2O1 | inactive | inactive | inactive
Cc1noc(C)c1S(=O)(=O)N(C)C[C@H]1Oc2ccc(NS(=O)(=O)c3ccccc3)cc2CC(=O)N([C@H](C)CO)C[C@@H]1C | inactive | inactive | inactive
C[C@H]1CN([C@@H](C)CO)S(=O)(=O)c2ccc(C#CCN(C)C)cc2O[C@H]1CN(C)Cc1ccncc1 | inactive | inactive | inactive
C[C@@H]1CCCCO[C@H](CN(C)C(=O)Nc2ccc(C(F)(F)F)cc2)[C@@H](C)CN([C@@H](C)CO)C(=O)c2cc(NC(=O)CCC(F)(F)F)ccc2O1 | inactive | inactive | inactive
O=C(C=CC=Cc1ccc2c(c1)OCO2)N1CCCCC1 | inactive | inactive | inactive
Cc1ccc(S(=O)(=O)N(C)C[C@H]2Oc3c(NS(C)(=O)=O)cccc3C(=O)N([C@@H](C)CO)C[C@@H]2C)cc1 | inactive | inactive | inactive
C[C@H]1CN([C@@H](C)CO)C(=O)Cc2cc(NS(=O)(=O)c3cn(C)cn3)ccc2O[C@@H]1CN(C)Cc1ccccc1 | inactive | inactive | inactive
